From patent publication US20170204158A1 (Regeneron, published 2017)

Key:
[1] = molecular target: T1, human IL-33 (R&D Systems, # 3625-IL-010/CF) (human, UniProt O95760 112-270, biotinylated in the blocking ELISA of Example 3 (sites not given)); assay: cell-based or functional assay
T1 sequence (looked up): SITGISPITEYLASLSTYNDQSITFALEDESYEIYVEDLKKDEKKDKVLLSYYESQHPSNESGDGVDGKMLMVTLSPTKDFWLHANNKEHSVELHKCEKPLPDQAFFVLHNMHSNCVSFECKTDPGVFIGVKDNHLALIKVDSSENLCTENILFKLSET

[2] = molecular target: T2, mouse IL-33 (R&D Systems, # 3626-ML-010/CF) (mouse, UniProt Q8BVZ5 109-266); assay: cell-based or functional assay
T2 sequence (looked up): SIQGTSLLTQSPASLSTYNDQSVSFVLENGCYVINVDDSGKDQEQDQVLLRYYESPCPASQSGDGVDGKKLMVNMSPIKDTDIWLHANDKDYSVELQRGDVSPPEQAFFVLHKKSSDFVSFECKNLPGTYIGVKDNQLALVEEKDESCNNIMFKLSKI

[3] = molecular target: T3, monkey IL-33 expressed with C-terminal hexahistidine tag (MfIL-33-6His) (cynomolgus monkey (M. fascicularis)); assay: cell-based or functional assay
T3 chain: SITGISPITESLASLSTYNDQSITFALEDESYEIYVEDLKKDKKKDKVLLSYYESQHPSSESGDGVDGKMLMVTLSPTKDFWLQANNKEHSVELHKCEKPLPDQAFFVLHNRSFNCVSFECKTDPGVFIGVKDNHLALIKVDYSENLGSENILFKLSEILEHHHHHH

[4] = molecular target: T1, human IL-33 (R&D Systems, # …); assay: SPR (Biacore T-200), 25 C; Fc fusion captured by anti-Fc antibody, IL-33 injected
Procedure: (§1) The Biacore sensor surface was first derivatized by amine coupling a polyclonal rabbit anti-mouse antibody (GE, # BR-1008-38) or with a monoclonal mouse anti-human Fc antibody (GE, # BR-1008-39) to capture IL-33 Trap and receptor proteins with a C-terminal mouse IgG2a Fc tag or a C-terminal human IgG1 Fc tag, respectively. Kinetic experiments were carried out in 0.01 M HEPES pH 7.4, 0.15 M NaCl, 3 mM EDTA, and 0.005% v/v Surfactant Tween-20 (HBST running buffer). Different concentrations of human IL-33, mouse IL-33 or MfIL-33-6His prepared in HBST running buffer (ranging from 60 nM to 27.4 pM, 3-fold dilutions, for Trap proteins and ranging from 60 nM to 0.25 nM, 3-fold dilutions, for ST2 receptor proteins) were injected over the captured IL-33 Trap and receptor protein surfaces at a flow rate of 50 μL/minute. Association of different IL-33 proteins to the different capture surfaces was monitored for 7 minutes for Trap proteins or 4 minutes for ST2 receptor proteins and their dissociation in HBST running buffer was monitored for 14 minutes for Trap proteins or 8 minutes for ST2 receptor proteins. Kinetic association (ka) and dissociation (kd) rate constants were determined by fitting the real-time binding sensorgrams to a 1:1 binding model using Scrubber 2.0c curve-fitting software. Binding dissociation equilibrium constants (KD) and dissociative half-lives (t½) were calculated from the kinetic rate constants as: […]

[5] = molecular target: T2, mouse IL-33 (R&D Systems, # …); assay: SPR (Biacore T-200), 25 C; Fc fusion captured by anti-Fc antibody, mouse IL-33 injected
Procedure: as §1

[6] = molecular target: T1, human IL-33 (R&D Systems, # …); assay: competition ELISA; antagonist pre-mixed with 20 pM biotin-hIL-33, binding to plate-coated human ST2-Fc
Procedure: (§2) The ability of exemplary IL-33 antagonists of the invention to block human IL-33 (hIL-33) binding to the human ST2 receptor was measured using a competition sandwich ELISA. A portion of human ST2 protein ecto domain that was expressed with a C-terminal mouse Fc tag (SEQ ID NO:2) was coated at a concentration of 1 μg/mL in PBS buffer on a 96-well microtiter plate overnight at 4° C. […] Biotinylated hIL-33 protein (R&D systems, #3625-IL/CF) (biot-hIL-33) was added to achieve a constant final concentration of 20 pM to serial dilutions of IL-33 antagonists ranging from 0 to 100 nM. The mixture was incubated for 1 hour at room temperature (RT) before transfer to the hST2-hFc coated microtiter plates. After incubation for 1 hour at RT, the wells were then washed, and plate-bound biot-hIL-33 was detected with HRP-conjugated streptavidin (Thermo Scientific, # N200). All samples were developed with a TMB solution (BD biosciences, # 51-2607KC) to produce a colorimetric reaction and then quenched by acidification with 1M sulfuric acid before measuring absorbance at 450 nm on a Victor X5 plate reader (PerkinElmer). Data analysis was performed using a sigmoidal dose-response model within Prism™ software. […] The absorbance measured at the constant amount of hIL-33 on the dose curve was defined as 0% blocking and the absorbance with no added IL-33 was defined as 100% blocking. […]

[7] = molecular target: T1, human IL-33 (R&D Systems, # …); assay: competition ELISA; antagonist pre-mixed with 20 pM biotin-hIL-33, binding to plate-coated human ST2-Fc; highest concentration tested
Procedure: as §2

IC50 (M), inhibition of 5 pM human IL-33 activation of HEK293/hST2/NFkB-luciferase cells [1]: 1e-11 M
IC50 (M), inhibition of 30 pM mouse IL-33 activation of HEK293/hST2/NFkB-luciferase cells [2]: 1.1e-10 M
IC50 (M), inhibition of 5 pM monkey IL-33 activation of HEK293/hST2/NFkB-luciferase cells [3]: 4.6e-12 M
60 nM Human IL-33 Bound (RU) [4]: 25 RU
Kd [4]: 54 pM
koff [4]: 0.00032 s⁻¹
kon [4]: 5.9e+06 M⁻¹ s⁻¹
t1/2 [4]: 36 min
60 nM Mouse IL-33 Bound (RU) [5]: 18 RU
Kd [5]: 102 pM
koff [5]: 0.000423 s⁻¹
kon [5]: 4.1e+06 M⁻¹ s⁻¹
t1/2 [5]: 27 min
IC50 [6]: 19.2 pM
% Maximum blocking [7]: 99%
B1: hST2-hFc (Fc fusion)
chain: KFSKQSWGLENEALIVRCPRQGKPSYTVDWYYSQTNKSIPTQERNRVFASGQLLKFLPAAVADSGIYTCIVRSPTFNRTGYANVTIYKKQSDCNVPDYLMYSTVSGSEKNSKIYCPTIDLYNWTAPLEWFKNCQALQGSRYRAHKSFLVIDNVMTEDAGDYTCKFIHNENGANYSVTATRSFTVKDEQGFSLFPVIGAPAQNEIKEVEIGKNANLTCSACFGKGTQFLAAVLWQLNGTKITDFGEPRIQQEEGQNQSFSNGLACLDMVLRIADVKEEDLLLQYDCLALNLHGLRRHTVRLSRKNPIDHHS[letters of human IgG1 Fc left out]
notes: also called first IL-33 antagonist; ST2 receptor protein
